# Experimental data taken from PubChem BioAssay AID2546 (National Center for Advancing Translational Sciences (NCATS), 2010).
# “And” between values parts separate entries of the source, which are not always exact repeats. Identical values can stand only once. In all, about 310,000 compounds went through this assay and about 11,000 (3.5%) were called active. This list was built around the results that the source calls inconclusive (neither active nor inactive); the mix of calls is not that of the screen. Calls follow the shape of the dose curve; as a rule, active = well fitted inhibition curve with a large enough effect; inconclusive = small, poorly fitted or top-dose-only effect, or effect the other way; inactive = flat fitted curve, though single readings scatter. A potency beside an inconclusive call is a rough fit, not a confirmed value.
# Experiment: VP16 counterscreen qHTS for inhibitors of ROR gamma transcriptional activity;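 also: Gal4-VP16 expression switched on by copper sulfate through the metallothionein promoter; nearly all actives have a fitted effect of over 50% in size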
# Settings: Drosophila S2 Gal4-VP16 UAS-luciferase, luminescence, 20 h; activity, negative = inhibition: at 53.6 µM (top of the series)
# % is scaled to controls: 0 for no effect and ±100 for the full control effect; potency is read from the fitted curve at half-maximal effect; tags tell the direction and shape of the fitted curve.
Structure (SMILES),Potency,"activity, negative = inhibition"
Cc1cccc2c1N(CCCOc1ccccc1)C(=O)C2=O,"inconclusive: 14.1 µM [inhibitor, partial curve, poor fit]",–
c1ccc(CCNc2ncnc3nc[nH]c23)cc1,"inconclusive: 22.4 µM [inhibitor, single point]",–
O=S(=O)(c1ccccc1)c1nc(-c2ccco2)oc1N1CCCCCC1,inactive,–
CC(=O)c1ccc(NC(=S)NC(=O)/C=C/c2ccco2)cc1,"inconclusive: 35.5 µM [inhibitor, single point]",–
COc1ccc(NC(=O)c2nc[nH]c2C(=O)N2CCN(C(=O)OC(C)(C)C)CC2)cc1,"inconclusive: 35.5 µM [inhibitor, single point]",–
CC(C)NC(=O)Cn1c(SCC(=O)c2ccc(F)cc2)nc2ccccc21,inactive,–
COc1cc(/C=C2\SC(=O)N(CC(=O)Nc3cccc(C)c3)C2=O)cc([N+](=O)[O-])c1O,"inconclusive: 11.2 µM [inhibitor, partial curve]",–
Cc1nnnn1/C(=C\c1ccccc1)C(=O)OCC(=O)NC(C)(C)C,active: 20 µM,–
CCCn1nnnc1NC(=O)c1ccc(C)cc1Cl,active: 6.31 µM,–
O=C(CCNC(=O)Cn1ccc2ccccc2c1=O)NCCc1ccccc1Cl,"inconclusive: 35.5 µM [inhibitor, single point]",–
O=C1CC(N2CCN(c3cccc(C(F)(F)F)c3)CC2)C(=O)N1c1ccc(F)cc1 (stereo not given),"inconclusive: 25.1 µM [inhibitor, single point]",–
Cc1ccc(/C=N/NC(=O)Cc2ccc(Cl)cc2)s1,"inconclusive: 35.5 µM [inhibitor, single point]",–
O=C(C1CC1)N1CCc2cc(Br)cc(S(=O)(=O)NCc3ccccn3)c21,inactive,–
COc1cc(C2NC(=O)C(C#N)=C(S)N2c2ccccc2)ccc1OC(C)C (stereo not given),"inconclusive: 25.1 µM [inhibitor, single point]",–
N#Cc1ccc(-c2ccc(OCC(=O)NCCc3ccccc3)cc2)cc1,"inconclusive: 35.5 µM [inhibitor, single point]",–
COc1ccccc1/C=C/C=N/n1c(-c2ccc(C)cc2)n[nH]c1=S,active: 2.82 µM,–
CCN(CC)C(=O)COc1ccc(/C(C)=N/Nc2ncc(Cl)cc2Cl)cc1,"inconclusive: 35.5 µM [inhibitor, single point]",–
COc1ccc(NC(=O)NCCCN2CCN(c3ccccc3F)CC2)cc1,inactive,–
Cn1cc(C[C@H](C(=O)O)N2C(=O)c3ccc(C(=O)O)cc3C2=O)c2ccccc21,inactive,–
Nn1c(SCC(=O)Nc2c(F)cc(F)cc2Br)nnc1C1CCCCC1,"inconclusive: 35.5 µM [inhibitor, single point]",–
Cc1ccc(C(=O)Nc2cccc([N+](=O)[O-])c2)cc1S(=O)(=O)Nc1cccc(C(=O)O)c1,inactive,–
C#CCOn1c(-n2nc(C)cc2C)nc2ccccc2c1=O,"inconclusive: 35.5 µM [inhibitor, single point]",–
Cn1c(SCC(=O)NC2CCCC2)nnc1-c1ccco1,inactive,–
Cc1ccc(C2N(c3cccc(Cl)c3)C(=O)C3CCCN32)o1 (stereo not given),inactive,–
O=C(Oc1ccc(Cl)cc1)N1CCCCC1,"inconclusive: 35.5 µM [inhibitor, single point]",–

Structure (SMILES),Potency,"activity, negative = inhibition"
COc1ccc2c(c1)O[C@H](c1ccc3c(c1)OCO3)[C@@H](OC(=O)NS(=O)(=O)c1ccc(C)cc1)C2=O,inactive,–
Cc1cc(SCC#N)n2nc(C)c(-c3ccc(Cl)cc3)c2n1,"inconclusive: 15.8 µM [inhibitor, single point]",–
CC(C)C(=O)N1CCN(c2ccccc2NC(=O)c2ccc([N+](=O)[O-])o2)CC1,inactive,–
CCOC(=O)C1Nc2ccc(Br)cc2C2C=CCC12 (stereo not given),inactive,–
CCC(C)(C)n1nnnc1CN(Cc1ccc(Cl)cc1)Cc1ccco1,"inconclusive: 35.5 µM [inhibitor, single point]",–
O=[N+]([O-])c1ccc(O)c(-c2nc(-c3ccccc3)c(-c3cccs3)[nH]2)c1,active: 11.2 µM,–
CCCN(CCC)Cc1c(C(=O)N/N=C/c2cccs2)nnn1-c1nonc1N,"inconclusive: 35.5 µM [inhibitor, single point]",–
COC(=O)c1ccc(NC(=O)c2cc3sccc3n2C)cc1,inactive,–
C=CCn1c(Cc2cccs2)nnc1SCC(=O)Nc1ccc(OC)cc1,"inconclusive: 35.5 µM [inhibitor, single point]",–
O=C(Oc1cccnc1)c1ccccc1[N+](=O)[O-],"inconclusive: 22.4 µM [inhibitor, single point]",–
Cc1ccc(-c2nc(-c3cccnc3)no2)cc1,"inconclusive: 25.1 µM [inhibitor, partial curve, poor fit]",–
CC(C)(C)NC(=O)C1c2ccccc2Oc2ccccc21,"inconclusive: 0.447 µM [activator, full curve, poor fit]",–
Cc1ncc(C[n+]2csc(CCOP(=O)(O)OP(=O)(O)O)c2C)c(N)n1,inactive,–
Cc1cc(SCC(=O)OCC(=O)N2CCN(C(=O)c3ccco3)CC2)c(C)cc1Br,"inconclusive: 0.316 µM [inhibitor, full curve]",–
Nc1c2c(nc3ccccc13)CCCC2=O,inactive,–
COc1cccc(N2CCN(C(=O)c3ccc(CS(=O)c4ccccc4Cl)o3)CC2)c1 (stereo not given),inactive,–
COc1ccc(CCC(=O)Nc2ncc(C)s2)cc1,"inconclusive: 11.2 µM [activator, partial curve]",–
Cc1cccn2cc(-c3ccccc3)nc12,inactive,–
C/C(CCC(C)C)=N\NS(=O)(=O)c1ccc(C)c([N+](=O)[O-])c1,inactive,–
Cc1ccc(OCc2cc(C(=O)N(C)Cc3cnc4ccccn34)no2)cc1C,"inconclusive: 14.1 µM [inhibitor, partial curve]",–
Cc1ccc(C(C(=O)NCc2ccco2)N(C(=O)CNC(=O)c2cccs2)c2c(C)cccc2C)cc1 (stereo not given),active: 15.8 µM,–
Cc1cccc(C(=O)Nc2ccc(O)c3c(=O)cc(-c4ccccc4Cl)oc23)c1,"inconclusive: 28.2 µM [inhibitor, single point] and inconclusive: 15.8 µM [inhibitor, partial curve]",–
Cn1c(/C(C#N)=C(\O)c2cc(Cl)sc2Cl)nc2ccccc21,active: 4.47 µM,–
CCN(Cc1ccccc1)C(=O)CCS(=O)(=O)c1ccc2c(c1)NC(=O)CO2,inactive,–
Cc1ccccc1-n1c(O)c(/C=C/C=Nc2ccccc2)c(=O)[nH]c1=O,inactive,–

Structure (SMILES),Potency,"activity, negative = inhibition"
CCn1cc(C(=O)NCCC(C)C)c(=O)c2cc(S(=O)(=O)N3CCCCC3)ccc21,inactive,–
C/C(=N\NC(=O)c1ccccc1F)c1cccc(NC(=O)c2ccc(C)cc2)c1,inactive,–
CCOC(=O)CNC(=O)Cn1cnc2c(oc3ccccc32)c1=O,inactive,–
c1ccc(CCSc2ncnc3nc[nH]c23)cc1,"inconclusive: 35.5 µM [inhibitor, single point]",–
CC1=NN(C(N)=S)C(=O)C1N=Nc1ccccc1Cl (stereo not given),active: 1 µM,–
CS(=O)(=O)c1cc([N+](=O)[O-])c(Sc2nc3ccccc3[nH]2)c([N+](=O)[O-])c1,active: 3.16 µM,–
CN(C)C(=O)c1ccc(-c2nccc(NCc3cccs3)n2)cc1,"inconclusive: 12.6 µM [activator, single point]",–
O=c1c2c3nc4ccccc4nc3n(Cc3ccccc3)c2ncn1Cc1ccco1,"inconclusive: 25.1 µM [inhibitor, single point]",–
Cc1ccc(NC(=S)N2CCN(Cc3ccccc3)CC2)cc1,inactive,–
O=C(NCc1ccccn1)C(=O)Nc1nc(-c2ccccc2)cs1,"inconclusive: 22.4 µM [inhibitor, single point]",–
O=C(/C=C/c1ccccc1)Nc1ncn[nH]1,"inconclusive: 22.4 µM [inhibitor, single point]",–
Cn1c(=O)c2c(nc(CN3CCc4ccccc4C3)n2CCCO)n(C)c1=O,inactive,–
NC(=O)c1ccccc1N1CCCCC1,inactive,–
CCOC(=O)Nc1ccc2c(c1)N(C(=O)CCN1CCOCC1)c1ccccc1S2=O (stereo not given),"inconclusive: 35.5 µM [inhibitor, single point]",–
COc1ccc(CCN(Cc2cc3cc(C)cc(C)c3nc2Cl)C(=O)C2CC2)cc1,"inconclusive: 22.4 µM [inhibitor, single point]",–
COc1ccc(Oc2ccc(N/C=C/C(=O)C(C)(C)C)cc2)cc1,inactive,–
CC(CN1CCOCC1)OC(=O)c1ccc(C(C)(C)C)cc1 (stereo not given),"inconclusive: 22.4 µM [inhibitor, single point]",–
CC(=O)c1ccc(NC(=O)NC2CCCCCCC2)cc1,"inconclusive: 1.12 µM [activator, full curve, poor fit]",–
CC1CCCN(CCC(=O)c2ccc(Br)cc2)C1 (stereo not given),active: 20 µM,–
CCOC(=O)Nc1ccc2c(c1)N(C(=O)CCCl)c1ccccc1[S@]2=O,"inconclusive: 5.01 µM [inhibitor, single point]",–
Cc1ccc2nc3c(cc2c1)CN(Cc1ccco1)C(=NCC1CCCO1)S3 (stereo not given),–,inactive: -2.85% [at 0.365 µM]
COc1ccc(OC)c(-n2c(SCC(=O)N3CCc4ccccc43)nc3c(c2=O)SCC3)c1,inactive,–
O=C1c2ccccc2-c2nnc(-c3ccccc3)cc21,active: 11.2 µM,–
CCOC(=O)N1CCC(NC(=O)CS(=O)(=O)Cc2nc(-c3ccc(OC)cc3)oc2C)CC1,"inconclusive: 35.5 µM [inhibitor, partial curve, poor fit]",–
S=C(NCc1ccc(Cl)cc1)NC1CCN(Cc2ccccc2)CC1,"inconclusive: 35.5 µM [inhibitor, single point]",–
